Test results: the supplement of paper PMC4967469
A lower IC50 marks a more sensitive line; a fit beyond the top or the lowest dose is shown as a bound at that dose. AUC sums up the same curve from the lowest dose to the 256-fold higher top dose; it is 1 without any effect and falls as sensitivity rises. Any top dose called inferred comes from the curve model; the source does not state it.

Compound: O=C1NC(=O)c2c1c(-c1ccccc1Cl)cc1[nH]c3ccc(O)cc3c21 [Wee1 inhibitor 681640]
Test: Viability of human cancer cell lines after 72 h of drug (GDSC screen)
Details: top dose 2 µM; top dose inferred
Method: (§1)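 Human cancer cell lines in 384-well plates, medium with 10% serum, drug for 72 h over a 256-fold dose range (nine 2-fold or five 4-fold steps up to the top dose). Adherent lines were fixed and stained with the nucleic acid dye Syto60, suspension lines read with resazurin; signal relative to control wells, capped at 0 and 100%. One two-parameter sigmoid per drug and line, fitted in a mixed model over all curves with the slope shared within a line.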

Row | Cell Line | AUC | IC50 [µM]
1 | CAL-29 (bladder, adherent) | 0.771 | 0.827
2 | CAL-39 (cervix, adherent) | 0.91 | > 2
3 | CAL-51 (breast, adherent) | 0.951 | > 2
4 | CAL-72 (osteosarcoma, adherent) | 0.769 | 0.887
5 | CAL-85-1 (breast, adherent) | 0.967 | > 2
6 | CAL-120 (breast, adherent) | 0.904 | > 2
7 | CCF-STTG1 (glioma, adherent) | 0.988 | > 2
8 | CFPAC-1 (pancreas, adherent) | 0.945 | > 2
9 | CHL-1 (melanoma, adherent) | 0.806 | 0.948
10 | COLO-678 (large intestine, semi-adherent) | 0.962 | > 2
11 | COLO-679 (melanoma, adherent) | 0.931 | > 2
12 | COLO-680N (oesophagus, adherent) | 0.985 | > 2
13 | Ca9-22 (head and neck, adherent) | 0.899 | > 2
14 | Ca-Ski (cervix, adherent) | 0.944 | > 2
15 | Caov-4 (ovary, adherent) | 0.98 | > 2
16 | DAN-G (pancreas, adherent) | 0.976 | > 2
17 | DK-MG (glioma, adherent) | 0.978 | > 2
18 | Detroit562 (head and neck, adherent) | 0.938 | > 2

Row | Cell Line | AUC | IC50 [µM]
19 | EBC-1 (lung squamous cell carcinoma, adherent) | 0.973 | > 2
20 | ECC10 (stomach, suspension) | 0.865 | 1.9
21 | EFO-21 (ovary, adherent) | 0.969 | > 2
22 | EFO-27 (ovary, adherent) | 0.921 | > 2
23 | EGI-1 (biliary tract, adherent) | 0.953 | > 2
24 | FU97 (stomach, adherent) | 0.985 | > 2
25 | FU-OV-1 (ovary, adherent) | 0.981 | > 2
26 | G-292 Clone A141B1 (osteosarcoma, adherent) | 0.896 | > 2
27 | G-361 (melanoma, adherent) | 0.988 | > 2
28 | G-402 (soft tissue, adherent) | 0.931 | > 2
29 | GMS-10 (glioma, adherent) | 0.942 | > 2
30 | H4 (glioma, adherent) | 0.816 | 1.1
31 | H2373 (mesothelioma, adherent) | 0.947 | > 2
32 | H3255 (lung adenocarcinoma, adherent) | 0.923 | > 2
33 | HCC1143 (breast, adherent) | 0.98 | > 2
34 | HCC1500 (breast, adherent) | 0.982 | > 2
35 | HCC-44 (lung adenocarcinoma, adherent) | 0.956 | > 2

Compound: NC(=O)c1ccc(N(C(N)=O)c2c(F)cccc2F)nc1-c1ccc(F)cc1F [VX-702]
Test: as above
Details: top dose 2 µM; top dose inferred
Method: as §1

Row | Cell Line | AUC | IC50 [µM]
36 | CAL-29 (bladder, adherent) | 0.977 | > 2
37 | CAL-39 (cervix, adherent) | 0.986 | > 2
38 | CAL-51 (breast, adherent) | 0.987 | > 2
39 | CAL-72 (osteosarcoma, adherent) | 0.982 | > 2
40 | CAL-85-1 (breast, adherent) | 0.964 | > 2
41 | CAL-120 (breast, adherent) | 0.98 | > 2
42 | CCF-STTG1 (glioma, adherent) | 0.988 | > 2
43 | CFPAC-1 (pancreas, adherent) | 0.974 | > 2
44 | CHL-1 (melanoma, adherent) | 0.961 | > 2
45 | COLO-678 (large intestine, semi-adherent) | 0.982 | > 2
46 | COLO-679 (melanoma, adherent) | 0.97 | > 2
47 | COLO-680N (oesophagus, adherent) | 0.986 | > 2
48 | Ca9-22 (head and neck, adherent) | 0.986 | > 2
49 | Ca-Ski (cervix, adherent) | 0.972 | > 2
50 | Caov-4 (ovary, adherent) | 0.98 | > 2
51 | DAN-G (pancreas, adherent) | 0.991 | > 2
52 | DK-MG (glioma, adherent) | 0.978 | > 2
53 | Detroit562 (head and neck, adherent) | 0.982 | > 2

Row | Cell Line | AUC | IC50 [µM]
54 | EBC-1 (lung squamous cell carcinoma, adherent) | 0.97 | > 2
55 | ECC10 (stomach, suspension) | 0.951 | > 2
56 | EFO-21 (ovary, adherent) | 0.98 | > 2
57 | EFO-27 (ovary, adherent) | 0.955 | > 2
58 | EGI-1 (biliary tract, adherent) | 0.966 | > 2
59 | FU97 (stomach, adherent) | 0.98 | > 2
60 | FU-OV-1 (ovary, adherent) | 0.973 | > 2
61 | G-292 Clone A141B1 (osteosarcoma, adherent) | 0.906 | > 2
62 | G-361 (melanoma, adherent) | 0.988 | > 2
63 | G-402 (soft tissue, adherent) | 0.88 | > 2
64 | GMS-10 (glioma, adherent) | 0.988 | > 2
65 | H4 (glioma, adherent) | 0.973 | > 2
66 | H2373 (mesothelioma, adherent) | 0.983 | > 2
67 | H3255 (lung adenocarcinoma, adherent) | 0.984 | > 2
68 | HCC1143 (breast, adherent) | 0.978 | > 2
69 | HCC1500 (breast, adherent) | 0.954 | > 2
70 | HCC-44 (lung adenocarcinoma, adherent) | 0.984 | > 2

Compound: CC(C)=CC[C@@H](O)C1=CC(=O)c2c(O)ccc(O)c2C1=O [Shikonin]
Test: as above
Details: top dose 16 µM; top dose inferred
Method: as §1

Row | Cell Line | AUC | IC50 [µM]
71 | CAL-29 (bladder, adherent) | 0.612 | 2.09
72 | CAL-39 (cervix, adherent) | 0.541 | 1.3
73 | CAL-51 (breast, adherent) | 0.126 | 0.083
74 | CAL-72 (osteosarcoma, adherent) | 0.514 | 1.1
75 | CAL-85-1 (breast, adherent) | 0.229 | 0.126
76 | CAL-120 (breast, adherent) | 0.575 | 1.7
77 | CCF-STTG1 (glioma, adherent) | 0.47 | 0.827
78 | CFPAC-1 (pancreas, adherent) | 0.452 | 0.727
79 | CHL-1 (melanoma, adherent) | 0.234 | 0.179
80 | COLO-678 (large intestine, semi-adherent) | 0.594 | 1.95
81 | COLO-679 (melanoma, adherent) | 0.258 | –
82 | COLO-680N (oesophagus, adherent) | 0.423 | –
83 | Ca9-22 (head and neck, adherent) | 0.388 | 0.505
84 | Ca-Ski (cervix, adherent) | 0.415 | 0.567
85 | Caov-4 (ovary, adherent) | 0.581 | 1.84
86 | DAN-G (pancreas, adherent) | 0.985 | > 16
87 | DK-MG (glioma, adherent) | 0.659 | 3.46
88 | Detroit562 (head and neck, adherent) | 0.668 | 2.87

Row | Cell Line | AUC | IC50 [µM]
89 | EBC-1 (lung squamous cell carcinoma, adherent) | 0.51 | 1.07
90 | ECC10 (stomach, suspension) | 0.49 | 0.936
91 | EFO-21 (ovary, adherent) | 0.581 | 1.83
92 | EFO-27 (ovary, adherent) | 0.339 | 0.318
93 | EGI-1 (biliary tract, adherent) | 0.631 | 2.56
94 | FU97 (stomach, adherent) | 0.44 | 0.681
95 | FU-OV-1 (ovary, adherent) | 0.456 | 0.73
96 | G-292 Clone A141B1 (osteosarcoma, adherent) | 0.584 | 1.95
97 | G-361 (melanoma, adherent) | 0.358 | 0.412
98 | G-402 (soft tissue, adherent) | 0.419 | 0.559
99 | GMS-10 (glioma, adherent) | 0.665 | 2.86
100 | H4 (glioma, adherent) | 0.32 | 0.317
101 | H2373 (mesothelioma, adherent) | 0.605 | 2.1
102 | H3255 (lung adenocarcinoma, adherent) | 0.68 | 3.54
103 | HCC1143 (breast, adherent) | 0.441 | 0.647
104 | HCC1500 (breast, adherent) | 0.627 | 2.27
105 | HCC-44 (lung adenocarcinoma, adherent) | 0.395 | 0.519

Compound: Cc1cccc(-c2[nH]c(C(C)(C)C)nc2-c2ccc3nccnc3c2)n1 [SB-525334]
Test: as above
Details: top dose 20 µM; top dose inferred
Method: as §1

Row | Cell Line | AUC | IC50 [µM]
106 | CAL-29 (bladder, adherent) | 0.983 | > 20
107 | CAL-39 (cervix, adherent) | 0.902 | > 20
108 | CAL-51 (breast, adherent) | 0.988 | > 20
109 | CAL-72 (osteosarcoma, adherent) | 0.984 | > 20
110 | CAL-85-1 (breast, adherent) | 0.941 | > 20
111 | CAL-120 (breast, adherent) | 0.941 | > 20
112 | CCF-STTG1 (glioma, adherent) | 0.91 | > 20
113 | CFPAC-1 (pancreas, adherent) | 0.984 | > 20
114 | CHL-1 (melanoma, adherent) | 0.673 | 3.67
115 | COLO-678 (large intestine, semi-adherent) | 0.979 | > 20
116 | COLO-679 (melanoma, adherent) | 0.972 | > 20
117 | COLO-680N (oesophagus, adherent) | 0.985 | > 20
118 | Ca9-22 (head and neck, adherent) | 0.98 | > 20
119 | Ca-Ski (cervix, adherent) | 0.957 | > 20
120 | Caov-4 (ovary, adherent) | 0.919 | > 20
121 | DAN-G (pancreas, adherent) | 0.954 | > 20
122 | DK-MG (glioma, adherent) | 0.975 | > 20

Row | Cell Line | AUC | IC50 [µM]
123 | Detroit562 (head and neck, adherent) | 0.984 | > 20
124 | EBC-1 (lung squamous cell carcinoma, adherent) | 0.957 | > 20
125 | ECC10 (stomach, suspension) | 0.881 | > 20
126 | EFO-21 (ovary, adherent) | 0.971 | > 20
127 | EFO-27 (ovary, adherent) | 0.953 | > 20
128 | EGI-1 (biliary tract, adherent) | 0.944 | > 20
129 | FU97 (stomach, adherent) | 0.886 | > 20
130 | FU-OV-1 (ovary, adherent) | 0.953 | > 20
131 | G-292 Clone A141B1 (osteosarcoma, adherent) | 0.97 | > 20
132 | G-361 (melanoma, adherent) | 0.938 | > 20
133 | G-402 (soft tissue, adherent) | 0.83 | 18.7
134 | GMS-10 (glioma, adherent) | 0.985 | > 20
135 | H4 (glioma, adherent) | 0.977 | > 20
136 | H2373 (mesothelioma, adherent) | 0.917 | > 20
137 | H3255 (lung adenocarcinoma, adherent) | 0.962 | > 20
138 | HCC1143 (breast, adherent) | 0.941 | > 20
139 | HCC1500 (breast, adherent) | 0.931 | > 20
